We go through 25 compounds from article PMC4336329 (PLoS ONE, 2015).

Among all 310,000 compounds or so, about 14,000 (4.5%) showed an effect of 50% or more. The effect is printed as a negative number. This is one part of the list.
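Note: peak tail current of the secondary pulse compared with the same well before compound.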

Sequence of human ether-à-go-go-related gene (hERG) potassium channel (Q12809 whole entry, looked up): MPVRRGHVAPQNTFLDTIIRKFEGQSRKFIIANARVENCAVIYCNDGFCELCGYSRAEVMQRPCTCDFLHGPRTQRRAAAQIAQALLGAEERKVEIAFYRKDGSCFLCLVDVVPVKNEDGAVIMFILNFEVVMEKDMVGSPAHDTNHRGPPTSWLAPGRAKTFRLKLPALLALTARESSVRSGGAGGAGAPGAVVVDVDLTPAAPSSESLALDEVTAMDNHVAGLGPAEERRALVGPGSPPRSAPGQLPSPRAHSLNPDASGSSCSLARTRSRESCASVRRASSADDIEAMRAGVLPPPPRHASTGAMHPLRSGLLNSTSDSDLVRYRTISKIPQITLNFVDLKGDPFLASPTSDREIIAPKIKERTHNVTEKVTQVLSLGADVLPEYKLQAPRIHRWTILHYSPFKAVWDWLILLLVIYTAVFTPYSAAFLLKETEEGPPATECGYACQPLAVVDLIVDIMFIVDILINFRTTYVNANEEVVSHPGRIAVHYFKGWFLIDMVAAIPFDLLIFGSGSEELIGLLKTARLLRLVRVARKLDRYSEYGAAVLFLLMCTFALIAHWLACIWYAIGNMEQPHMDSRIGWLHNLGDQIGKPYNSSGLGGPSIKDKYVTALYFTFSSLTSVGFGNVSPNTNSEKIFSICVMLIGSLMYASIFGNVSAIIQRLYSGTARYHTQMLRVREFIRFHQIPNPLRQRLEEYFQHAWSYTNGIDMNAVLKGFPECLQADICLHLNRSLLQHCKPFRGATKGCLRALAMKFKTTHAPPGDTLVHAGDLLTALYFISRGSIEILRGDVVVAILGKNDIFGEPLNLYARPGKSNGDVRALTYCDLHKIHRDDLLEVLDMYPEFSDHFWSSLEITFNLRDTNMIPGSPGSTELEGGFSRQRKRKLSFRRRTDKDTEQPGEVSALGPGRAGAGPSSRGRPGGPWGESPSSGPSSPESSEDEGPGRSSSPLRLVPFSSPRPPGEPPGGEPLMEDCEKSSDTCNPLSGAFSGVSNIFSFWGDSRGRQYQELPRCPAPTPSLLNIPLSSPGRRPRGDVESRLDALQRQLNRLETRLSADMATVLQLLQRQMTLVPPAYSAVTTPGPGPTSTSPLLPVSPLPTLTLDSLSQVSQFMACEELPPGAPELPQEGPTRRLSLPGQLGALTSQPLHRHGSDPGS

This test has as its target human ether-à-go-go-related gene (hERG) potassium channel (human, UniProt Q12809). The test is described as follows: primary screen, population patch clamp on CHO cells stably expressing hERG.
Consider `O=C(Nc1ccccc1C(=O)NCc1ccccc1)c1ccco1`, for which the “hERG current change (%, negative = inhibition) at 10uM” value is -17%. Then `Cc1cc([N+](=O)[O-])nn1Cc1c(F)c(F)c(F)c(F)c1F`, with -5.31%; and `CCC(NC(=O)CNC(=O)CNC(=O)c1ccc(Cl)cc1Cl)c1ccc(C)cc1` (stereo not shown), with 22.2%; and `COc1ccc2[nH]c3c(=S)nc[nH]c3c2c1`, with 27.3%. The result for `O=C(O)C1CCCCC1C(=O)Nc1ccccn1` (stereo not shown) reads 13.8%; that for `Nc1nc(N2CCOCC2)nc(N(c2ccccc2)c2ccccc2)n1`, 1.42%; that for `CCOC(=O)CN1C(=O)C(=O)N(Cc2c(Cl)cccc2Cl)C1=O`, 18.4%. The result for `COC(=O)c1cc(COc2ccc3c4c(c(=O)oc3c2)CCCC4)c(C)o1` reads -2.59%; that for `Cc1cccc(CCNC(=O)CCc2c(C)nc3ncnn3c2C)c1`, -31.7%.

In the case of `CC(C)c1ccc(NS(=O)(=O)c2ccc(Cl)nc2)cc1`, the “hERG current change (%, negative = inhibition) at 10uM” value is reported as -4.03%.

On to `COc1ccc(OCC(=O)NNC(=O)C(=O)Nc2ccc(C)cc2)cc1`, for which the “hERG current change (%, negative = inhibition) at 10uM” value stood at 11.4%. Turning to `COc1ccccc1NC(=O)C(C)OC(=O)C1CCC(C(C)(C)C)CC1` (stereo not shown), the “hERG current change (%, negative = inhibition) at 10uM” value turned out to be 7.47%.

Consider `COc1ccc(CN2CCN(c3ncccn3)CC2)c(C)c1C`, for which the “hERG current change (%, negative = inhibition) at 10uM” value was -35.9%. The result for `COc1ccc2cc(C)c3nnc(SCC(=O)Nc4nc(-c5ccc(F)cc5)cs4)n3c2c1` reads -1.62%.

`CCCSc1ccc2nc(NC(=O)OC)[nH]c2c1`: the “hERG current change (%, negative = inhibition) at 10uM” value is listed as 11%.

Consider `CCC(Sc1nnc2c3ccccc3n(CC)c2n1)C(=O)Nc1sc2c(c1C#N)CCCC2` (stereo not shown), for which the “hERG current change (%, negative = inhibition) at 10uM” value is recorded as -6.77%. For the compound `CCOC(=O)c1cc2occc2n1CC(=O)NCCOC`, the “hERG current change (%, negative = inhibition) at 10uM” value is listed as -2.25%.

For the compound `CCCc1cc(N2CCCC(C(=O)Nc3c(OC)cccc3OC)C2)n2ncnc2n1` (stereo not shown), the “hERG current change (%, negative = inhibition) at 10uM” value is -10.7%. Then `Cc1nc2sccn2c(=O)c1Br`, with 15.4%; and `O=C(Cc1c[nH]c2ccccc12)N/N=C/c1cccc(F)c1`, with 4.27%. Take `CC(NC(=O)CNC(=O)c1sc2ccccc2c1Cl)c1ccc(S(N)(=O)=O)cc1` (stereo not shown): the “hERG current change (%, negative = inhibition) at 10uM” value is on record as -34.2%. As for `O=C(NCc1cccs1)c1cc2c(s1)-c1ccccc1OC2`, the “hERG current change (%, negative = inhibition) at 10uM” value was found to be 1.42%. Then `O=C(CN1C(=O)c2cccc3cccc(c23)C1=O)N1CCCCCC1`, with 9.58%.

For `O=C(O)c1ccc(NC(=O)c2ccc3c(c2)C(=O)N(CC2CCCO2)C3=O)cc1` (stereo not shown), the “hERG current change (%, negative = inhibition) at 10uM” value was 13%. Turning to `CC1Cc2nc(SCC(=O)Nc3ccc4c(c3)OCO4)n(Cc3ccccc3)c(=O)c2S1` (stereo not shown), the “hERG current change (%, negative = inhibition) at 10uM” value was -12.7%.
